# From PubChem BioAssay AID504332 (National Center for Advancing Translational Sciences (NCATS), 2011)
# Out of some 350,000 compounds screened, about 31,000 (8.9%) were called active. Inconclusive results, whose numbers are uncertain, are shown with a selection of clear calls. Calls follow the shape of the dose curve; as a rule, active = well fitted inhibition curve with a large enough effect; inconclusive = small, poorly fitted or top-dose-only effect; inactive = no such curve, though single readings can be large or run the other way. Where the call is inconclusive, the potency comes from a doubtful curve fit.
# Target: Histone-lysine N-methyltransferase EHMT2 (Homo sapiens) (UniProt Q96KQ7)
# Assay: qHTS Assay for Inhibitors of Histone Lysine Methyltransferase G9a; also: nearly all actives have a fitted effect of over 75% in size
# Conditions: G9a H3K9 monomethylation, AlphaScreen, 2 h; activity, negative = inhibition: at 59 µM (top of the series) unless noted
# Summary of the method: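 Signal arises when biotinylated H3K9 peptide, once monomethylated, bridges streptavidin donor and antibody-captured acceptor beads. Enzyme at 20 nM was preincubated 15 min with test compounds; peptide 500 nM and SAM 20 uM then reacted for 2 h.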
# % is scaled to controls: 0 for no effect and ±100 for the full control effect; potency is read from the fitted curve at half-maximal effect; tags tell the direction and shape of the fitted curve.
# Chain of UniProt Q96KQ7 (Q96KQ7 whole entry, looked up): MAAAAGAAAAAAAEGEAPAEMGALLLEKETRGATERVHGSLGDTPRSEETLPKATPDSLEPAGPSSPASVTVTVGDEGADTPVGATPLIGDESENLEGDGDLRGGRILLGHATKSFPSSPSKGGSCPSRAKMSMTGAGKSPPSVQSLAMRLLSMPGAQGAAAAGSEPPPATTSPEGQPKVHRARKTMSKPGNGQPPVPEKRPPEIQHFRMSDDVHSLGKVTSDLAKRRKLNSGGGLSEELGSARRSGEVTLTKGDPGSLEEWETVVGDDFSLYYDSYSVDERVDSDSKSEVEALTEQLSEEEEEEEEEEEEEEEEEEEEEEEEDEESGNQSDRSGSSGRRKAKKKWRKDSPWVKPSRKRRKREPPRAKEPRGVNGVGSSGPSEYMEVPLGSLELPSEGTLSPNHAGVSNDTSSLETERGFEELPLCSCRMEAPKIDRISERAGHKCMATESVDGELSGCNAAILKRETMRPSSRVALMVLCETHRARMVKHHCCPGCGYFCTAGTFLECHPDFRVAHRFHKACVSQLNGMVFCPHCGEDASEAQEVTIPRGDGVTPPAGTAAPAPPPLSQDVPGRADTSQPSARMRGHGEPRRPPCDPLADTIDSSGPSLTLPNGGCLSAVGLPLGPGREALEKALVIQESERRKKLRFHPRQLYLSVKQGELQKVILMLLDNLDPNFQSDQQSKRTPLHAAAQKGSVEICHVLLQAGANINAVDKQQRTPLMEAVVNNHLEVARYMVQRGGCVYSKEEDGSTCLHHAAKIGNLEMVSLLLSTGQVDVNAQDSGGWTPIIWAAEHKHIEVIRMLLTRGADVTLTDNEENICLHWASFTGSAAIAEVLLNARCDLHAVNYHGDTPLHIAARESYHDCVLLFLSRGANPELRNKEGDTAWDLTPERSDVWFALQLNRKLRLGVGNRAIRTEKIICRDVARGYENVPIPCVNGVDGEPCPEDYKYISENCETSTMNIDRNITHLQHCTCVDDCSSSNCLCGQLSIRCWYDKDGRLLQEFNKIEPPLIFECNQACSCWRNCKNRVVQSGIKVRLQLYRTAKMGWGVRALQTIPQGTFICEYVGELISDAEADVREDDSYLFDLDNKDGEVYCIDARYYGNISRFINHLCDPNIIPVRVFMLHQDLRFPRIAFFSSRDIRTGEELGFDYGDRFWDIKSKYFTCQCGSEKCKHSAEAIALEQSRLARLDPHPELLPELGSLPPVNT
Structure (SMILES),Potency,"activity, negative = inhibition"
O=C1NC(c2ccc(Br)cc2)=N/C1=C/c1ccco1,"inconclusive: 22.4 µM [inhibitor, single point]",–
O=C(NN=C1C2CC3CC(C2)CC1C3)c1cccc(S(=O)(=O)N2CCOCC2)c1,"inconclusive: 1.58 µM [inhibitor, full curve]",–
Fc1ccc(NC(=S)NCCN2CCOCC2)cc1,inactive,–
Cc1cc(Nc2ccc(C(=O)O)c(O)c2)n2ncnc2n1,"inconclusive: 22.4 µM [inhibitor, partial curve, poor fit]",–
COc1cc(CCN2C(=O)N[C@@H](c3cccc(C(F)(F)F)c3)C(C(C)=O)=C2C)cc(OC)c1OC,"inconclusive: 56.2 µM [inhibitor, partial curve, poor fit]",–
COc1ccc(Cl)cc1NC(=O)C1CCN(C(=O)C2CC(=O)N(c3ccc(C)cc3)C2)CC1 (configuration not stated),inactive,–
FC(F)(F)c1ccccc1NC(=S)N1CCCC1,inactive,–
CNCc1c(OCc2ccc(F)cc2)ccc2ccccc12,"inconclusive: 0.316 µM [inhibitor, partial curve, poor fit]",–
CCOC(=O)c1c(N2C(=O)C3C4C=CC(O4)C3C2=O)sc2c1CCCC2 (configuration not stated),active: 1.78 µM,–
COCC1CCN(Cc2nc(-c3ccc(OC)cc3)no2)CC1,"inconclusive: 39.8 µM [inhibitor, single point]",–
O=C(O)c1ccccc1C(=O)NNc1cccc(Cl)n1,active: 44.7 µM,–
COc1ccc(N2CCN(Cc3nnc(-c4cccc(Br)c4)o3)CC2)cc1,active: 11.2 µM,–
O=C(COc1ccccc1)N1CCN(C(=O)COc2ccccc2)CC1,"inconclusive: 89.1 µM [inhibitor, single point]",–
Cc1ccc(C)c(N2CCN(C(=O)CCS(=O)(=O)c3ccc4c(c3)NC(=O)CO4)CC2)c1,inactive,–
O=C(Nc1cccc(-c2nc3ncccc3o2)c1)c1ccccc1,inactive,–
CN(C)CCNc1oc(-c2ccc(COc3ccc(Cl)cc3)o2)nc1C#N,"inconclusive: 12.6 µM [inhibitor, partial curve]",–
CC(C)(C)CC(=O)NC(=S)Nc1ccccc1[N+](=O)[O-],–,inconclusive: -84.2% [inhibitor]
CCOc1cc(C2C3=C(CCCC3=O)NC3=C2C(=O)CCC3)cc(Cl)c1O,"inconclusive: 10 µM [inhibitor, partial curve, poor fit]",–
CCOc1ccc(-n2cnnn2)cc1S(=O)(=O)N1CCCCC1,"inconclusive: 10 µM [inhibitor, partial curve, poor fit]",–
COc1ccc(C2NC(=O)C(=O)/C2=C(\O)c2ccc(Cl)cc2)cc1OC (configuration not stated),"inconclusive: 89.1 µM [inhibitor, single point]",–
C[C@@H](O)C1NC(=O)[C@H](CCCCN)NC(=O)c2cc([N+](=O)[O-])cc(I)c2OCC[C@@H](C(N)=O)NC1=O (some centres not stated),active: 8.91 µM,–
CCOC(=O)c1cnc(SCc2nc(N)nc(Nc3ccc(F)cc3)n2)nc1N,"inconclusive: 31.6 µM [inhibitor, single point]",–
Cc1cccc(-n2c(O)c(C=Nc3c(C)n(C)n(-c4ccccc4)c3=O)c3ccccc3c2=O)n1,"inconclusive: 89.1 µM [inhibitor, single point]",–
C[C@@]12C(=O)OC(=O)[C@]1(C)[C@H]1CC[C@@H]2O1,inactive,–

Structure (SMILES),Potency,"activity, negative = inhibition"
O=C(O)CCC/C=C\C[C@@H]1[C@@H](/C=C/[C@@H](O)COc2cccc(C(F)(F)F)c2)[C@H](O)C[C@@H]1O,inactive,–
O=[N+]([O-])c1cccc(C=Nc2cc3c(cc2Br)OCCO3)c1,active: 50.1 µM,–
CC(C)Cn1c(-c2ccc(S(=O)(=O)N3CCOCC3)cc2)csc1=Nc1cc(Cl)ccc1Cl,"inconclusive: 2.24 µM [inhibitor, partial curve, poor fit]",–
Nc1cccc2c1C(=O)N(C(=O)c1ccco1)C2=O,"inconclusive: 56.2 µM [inhibitor, partial curve]",–
COc1ccccc1OCc1nc(C#N)c(NCCCn2ccnc2)o1,"inconclusive: 0.708 µM [inhibitor, partial curve, poor fit]",–
CCOc1ccc(NC(=O)C2CC(=O)N(c3ccccc3F)C2)cc1 (configuration not stated),inactive,–
CN(C)c1cccc(C(=O)NNC(=S)NC2CCCC2)c1,"inconclusive: 50.1 µM [inhibitor, partial curve, poor fit]",–
COc1ccc(Cl)cc1NC(=O)C1CSC(c2ccncc2)=N1 (configuration not stated),active: 11.2 µM,–
Cc1ccc(C)c(Cn2c(C(=O)OC(C)C)cc3c2ccn3C)c1,active: 50.1 µM,–
CCOC(=O)C1Cc2ccccc2C(=O)O1 (configuration not stated),"inconclusive: 56.2 µM [inhibitor, single point]",–
O=C(O)c1cc([N+](=O)[O-])ccc1NCc1ccccc1Cl,"inconclusive: 31.6 µM [inhibitor, partial curve, poor fit]",–
C=CCc1cc(Cl)ccc1OCCOCCNCCOC,"inconclusive: 31.6 µM [inhibitor, single point]",–
CC(C)=C1C2C=CC1C1C(=O)N(c3ccc4c(c3)OCO4)C(=O)C21 (configuration not stated),active: 10 µM,–
Cc1c(N=Cc2ccc(Cl)o2)c(=O)n(-c2ccccc2)n1C,–,inconclusive: -82.8% [inhibitor]
COc1ccc(S(=O)(=O)N2CCCC(C(=O)N3CCN(C)CC3)C2)cc1C (configuration not stated),inactive,–
COc1ccc(C(=O)/C=C/c2ccc(OC)cc2OC)c(O)c1,–,inconclusive: -101% [inhibitor]
COC(C#CCCN(C)C)(c1ccccc1)c1ccccc1,"inconclusive: 17.8 µM [inhibitor, single point]",–
CCCN(CCC)CCSc1nc(O)c(C(C)C)c(=O)[nH]1,"inconclusive: 89.1 µM [inhibitor, partial curve, poor fit]",–
COc1ccc(-c2cc(C(=O)NC3=NCCS3)c3ccccc3n2)cc1OC,inactive,–
CC(C)(C)S(=O)(=O)/C(C#N)=C/Nc1ccccn1,"inconclusive: 89.1 µM [inhibitor, partial curve, poor fit]",–
Cc1cc(Cl)ccc1NC(=O)Cc1ccc(NC(=O)N2CCCCc3ccccc32)cc1,inactive,–
CCc1c(C)sc(NC(=O)C2CCCCC2C(=O)O)c1C(N)=O (configuration not stated),"inconclusive: 3.16 µM [inhibitor, partial curve, poor fit]",–
COc1ccc(/C=N/NC(=O)c2ccc(-n3cnnn3)cc2)cc1,"inconclusive: 79.4 µM [inhibitor, partial curve, poor fit]",–
CC1CCc2sc3nc(NCc4ccco4)n4ncnc4c3c2C1 (configuration not stated),"inconclusive: 39.8 µM [inhibitor, single point]",–

Structure (SMILES),Potency,"activity, negative = inhibition"
Cc1ccc(C(=O)NC2CC2)cc1S(=O)(=O)N1CCOCC1,"inconclusive: 6.31 µM [inhibitor, single point]",–
CC(C)CCNC(=O)CN(Cc1ccc2c(c1)OCO2)C(=O)Cn1nnc(-c2cccs2)n1,"inconclusive: 20 µM [inhibitor, single point]",–
CCn1ccnc1CN1CCC(n2nccc2NC(=O)c2ccccc2OC)CC1,"inconclusive: 12.6 µM [inhibitor, partial curve, poor fit]",–
C/C(=N\N(C)C)c1ccc(OCCOc2ccc([N+](=O)[O-])cc2)cc1,"inconclusive: 39.8 µM [inhibitor, single point]",–
OCC(O)C(O)C(O)C(O)CO (configuration not stated),inactive,–
CCOC(=O)CNC(=O)N1CCCN(S(=O)(=O)c2ccc3c(ccn3CC)c2)CC1,inactive,–
CCOc1ccc(C(=O)NC(=S)Nc2ncccc2C)cc1[N+](=O)[O-],"inconclusive: 0.1 µM [inhibitor, full curve, poor fit]",–
Cc1ccc(-c2ccc(C)c(N)c2C)c(C)c1N,"inconclusive: 56.2 µM [inhibitor, single point]",–
CCC1CN(C(=O)N2CCC(C(=O)Nc3ccccc3OC)CC2)c2ccccc2O1 (configuration not stated),inactive,–
Cc1cc(C(=O)N/N=C/C=C/c2cccc([N+](=O)[O-])c2)n[nH]1,inactive,–
CCS(=O)(=O)n1c(Cc2cccs2)nc2ccccc21,–,inactive: 3.37% [at 2.33 µM]
CC(=O)Cc1nsc(NC(=O)c2csc3c2CCCC3)n1,active: 2.51 µM,–
CCOc1ccc(NC(=O)N2CCN(c3nnc(C)c4c(C)n(-c5ccccc5)nc34)CC2)cc1,inactive,–
O=C(CSC1CN(C(c2ccccc2)c2ccccc2)C1)N/N=C/c1ccccc1,"inconclusive: 50.1 µM [inhibitor, partial curve, poor fit]",–
CCCc1nnc(NC(=O)c2nc(SCC)ncc2Cl)s1,"inconclusive: 10 µM [inhibitor, partial curve]",–
CCOC(=O)C1=C(CS(=O)(=O)c2ccc(F)c(C)c2)NC(=O)NC1c1ccccc1OC (configuration not stated),inactive,–
CCOc1ccc(OCC)c(NC(=O)CN2CCN(c3cccc(C)c3C)CC2)c1,"inconclusive: 31.6 µM [inhibitor, single point]",–
Cc1ccc2occ(/C=C/C(=O)O)c(=O)c2c1,inactive,–
CCn1cc([N+](=O)[O-])c(C(=O)N2N=C(c3cccc4ccccc34)CC2c2ccccc2O)n1 (configuration not stated),"inconclusive: 39.8 µM [inhibitor, single point]",–
COc1ccc(C(=O)Nc2cccc(-c3nnc(-c4ccco4)o3)c2)cc1,inactive,–
Nc1nnc(CCS(=O)(=O)c2cc(Cl)ccc2Cl)s1,"inconclusive: 79.4 µM [inhibitor, partial curve]",–
COc1ccc(C(NC(=O)/C=C/c2ccco2)c2ccc(OC)c(OC)c2)cc1OC,active: 8.91 µM,–
COc1ccc(C)cc1NC(=O)C1CCCN(c2ncnc3onc(C)c23)C1 (configuration not stated),inactive,–
O=[N+]([O-])c1ccccc1/C=C/C=N/Nc1ccc(S(=O)(=O)Nc2ccc(Cl)cc2)cc1[N+](=O)[O-],"inconclusive: 7.08 µM [inhibitor, full curve]",–
